Experimental data reported in patent publication US12569503B2, “Methods and compositions for substituted axially-chiral cannabinol analogs” (University of Florida Research Foundation, Inc., priority 2019, dated 2026).

System: mice with chronic constriction injury (CCI) of the sciatic nerve
Test: Reversal of CCI-induced thermal hyperalgesia
Assay type: in vivo

Molecule: 10-methyl-CBN [ax-CBN]
- Reversal of CCI-induced thermal hyperalgesia (in words): dose-relatedly reversed CCI-induced thermal hyperalgesia

Molecule: CCCCCc1cc(O)c2c(c1)OC(C)(C)[C@@H]1CCC(C)=C[C@@H]21 [THC, (−)-trans-Δ^9-tetrahydrocannabinol]
- Reversal of CCI-induced thermal hyperalgesia (in words): dose-relatedly reversed CCI-induced thermal hyperalgesia
